# Some of the results follow.
# T1: UNK ZnF1-3 (human, UniProt Q9C0B0 31-174)
# T1 sequence: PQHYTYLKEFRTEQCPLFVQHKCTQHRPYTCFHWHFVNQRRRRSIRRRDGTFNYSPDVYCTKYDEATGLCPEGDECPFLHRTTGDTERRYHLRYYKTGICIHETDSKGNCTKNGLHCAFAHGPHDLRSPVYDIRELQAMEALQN
# B1: chr14:70542292:70542293:-_ENSMUSG00000033712_ENSMUST00000035612|mus_hu|FALSE|FALSE (ssRNA)
# RNA: GGGAGUUCUACAGUCCGACGAUCCAAAGUAGGCAUGAUGGUCCAGACAUCCGGCAGGUACACCACCACUGUCUGAAGCCGCCGGGGGGGUCCCGGCUGCAGGUACUGAAACUCGGCAAAGCGCCACCACUUGGUACAGCCGCUCAACAGAGGAUUGAGCAUCA
# B2: chr1:109605286:109605287:-_ENSG00000197780_ENST00000461096|hu_mus|hu_hu_hu_mus_True|18_58 (ssRNA)
# RNA: GGGAGUUCUACAGUCCGACGAUCAAGUUUCAGAGUAACAUUCAGUAACCUCUUUAAAUGCAAUUAUCCUUAUUAUAAACUAAGGGCAAUAAUAAUUUAAUACCGUAAGUGAACUACCACAAAACCUUGAACCGCGAAAAUGGUCAACAGAGGAUUGAGCAUCA
# B3: chr10:118639881:118639882:-_ENSMUSG00000020114_ENSMUST00000020315|mus_hu|FALSE|FALSE (ssRNA)
# RNA: GGGAGUUCUACAGUCCGACGAUCAACACUAGUGGUUUUACAACCUCUGGAUUAUGGAAAUACACAUUUCUGAAAUAAAUGCUACAAAAACAACAAUGGAAGAAAGCCAAACAAACAGUCUCCAUGAAGGAAAAAAAAGUGGAACAACAGAGGAUUGAGCAUCA
# B4: chr3:179287964:179287965:+_ENSG00000136518_ENST00000429709|hu_hu|hu_hu_hu_mus_True|8_78 (ssRNA)
# RNA: GGGAGUUCUACAGUCCGACGAUCCUUGAGUGGUGAGAUGGCCUCCAUGUUCUCCCUCGGAACACGCAGGGCAUUGGUGUCUAUGUAGUAGGUGGGCCCGCCCUGCUUGCCUUUGUCACCAUCAAUCUCCAUUAAUGUACUUCCCAACAGAGGAUUGAGCAUCA
# B5: chr19:47223328:47223329:-_ENSG00000090372_ENST00000263280|hu_hu|FALSE|FALSE (ssRNA)
# RNA: GGGAGUUCUACAGUCCGACGAUCAGCAGGAGCUCAAGGGGAGAACCUGGCACCUUCUGGAGUCUUGGAAAAACUGAUCCCUAAAGACACCCGGCCCUGGCUGUGCUGCCCUCUGGAAAGCAGCUCUGAUACCAGGAGCGGCUGCAACAGAGGAUUGAGCAUCA
# B6: 29961457_29961577_3458_3pUTR_ENSG00000136193_ENST00000242059|human|control|control (ssRNA)
# RNA: GGGAGUUCUACAGUCCGACGAUCAGACUUCUUUUGAUCAAAUCCUGAAUCACCUUGGUUAUCUCAGACAUGUCAGGUCUGAUGAGACAUUUCAUAGUAGGCGAAGGUGAAAUCACUCAGUGAGAUUUUAGAGCAGCUUUCUGUCAACAGAGGAUUGAGCAUCA
# B7: chr1:180793972:180793973:+_ENSG00000143324_ENST00000367589|hu_mus|FALSE|FALSE (ssRNA)
# RNA: GGGAGUUCUACAGUCCGACGAUCGAGGACAUGAUUUACUCCAGCUUGUCUCCAACCAUAUGUGUUGAUGCCCAGUAGAAAAAGGAAUUCAAUCAGAAGAAAGCCACCCCGAUAGAUUCUUAUCAAGGGCCAUACAGUUCUAUCCAACAGAGGAUUGAGCAUCA
# B8: 163841862_163842452_1081_3pUTR_ENSMUSG00000018326_ENSMUST00000018470|mouse|control|control (ssRNA)
# RNA: GGGAGUUCUACAGUCCGACGAUCUCCCUCUCCAGCAUCUCCUUCAUCCCCCUGGUUUUCUGACGUCCACAGGGUGAGAUUGUCCCUGAGCAGCUGCAUGAUCAGGGUGCUGUCUUUGUAAGACUCUUCAUUCAGGGUGUCCAACAACAGAGGAUUGAGCAUCA
# B9: chr3:130449232:130449233:-_ENSG00000196455_ENST00000356763|hu_hu|motif|central (ssRNA)
# RNA: GGGAGUUCUACAGUCCGACGAUCCUCAUCUAUUUCUUCAUUAUUGGGGUCAUUUUCCAUAUUAAGAUUUUUUAACUGUACGGAUUCCAGGAAUCUCAGAGCUGUUUCUGCCAGCAGAGCUAUGUUUUCAGCAUAGGCUAGUCUCAACAGAGGAUUGAGCAUCA
# B10: chr11:77336104:77336105:-_ENSG00000074201_ENST00000525064|hu_mus|hu_hu_hu_mus_False|68_108 (ssRNA)
# RNA: GGGAGUUCUACAGUCCGACGAUCCUCGCACAUUGCAGUGAACAUCGCCUCCAAUGCUGACUUAUCACUAGGCACAAAUCGAAAUUCAGAAAUGGGUUCAACAUCAUCAUUGUCUUCCUCAUCUUCAUCAGAGAGAGGUUCUUUCAACAGAGGAUUGAGCAUCA
# B11: 151889072_151891145_1785_CDS_ENSMUSG00000028034_ENSMUST00000166984|mouse|control|control (ssRNA)
# RNA: GGGAGUUCUACAGUCCGACGAUCCUGCUGAUCUCCGUAGUUACCUUGUCCGUUCGUUUGGGUUGUAGCUGGUGCACCGGCAGGAGCUGCAGGUGGGGGUUGUGCCUGCUGCUGGUAAUAGUGAGCAUAAUAAGCAGCCCAAGCCAACAGAGGAUUGAGCAUCA
# B12: chr4:132926270:132926271:+_ENSMUSG00000028854_ENSMUST00000030669|mus_mus|FALSE|FALSE (ssRNA)
# RNA: GGGAGUUCUACAGUCCGACGAUCGAGAUUCACAAUCUCAAAGUCCAAACUGCAAAAAGGGGUUAAGUACCUUGGAGGGACUAAGGAGGAAACCGAAAGGAUCUAGAACUUCAGGCUGAGAGAAGGAAAUCGGGGAAACUGCGUCAACAGAGGAUUGAGCAUCA
# B13: 220340931_220344267_2949_CDS_ENSG00000118873_ENST00000358951|human|control|control (ssRNA)
# RNA: GGGAGUUCUACAGUCCGACGAUCAUCUCUUUCUUCAUUAGCCAGUUUUAAUACUUCAGGGCUGAAGUCCUGUUUAAAUAUCCACUUGGCUACACUGUCUGCAAUGCCACCUUUUCCUCCUUCUAAUAACUUUUUAACAGAAAGCAACAGAGGAUUGAGCAUCA
# B14: chr17:66335897:66335898:-_ENSMUSG00000034647_ENSMUST00000038116|mus_mus|FALSE|FALSE (ssRNA)
# RNA: GGGAGUUCUACAGUCCGACGAUCUUUUAAUUUAUGUUUUUUUAAUGUUUUACCCUCUUUAUCCAUCUUCUUCAGUGUGCAGUCUGAGUUUUCAAAUGCUGGAUUAUGAUCUUCAUCUUUAAUUUUGGCAUUUGAUUUUUCACCCAACAGAGGAUUGAGCAUCA
# Biological target: T1, UNK ZnF1-3
# Experiment: nsRBNS (natural sequence RNA bind-n-seq); RBNS binding buffer (assumed for nsRBNS): 25 mM Tris pH 7.5, 150 mM KCl, 3 mM MgCl2, 0.01% Triton X-100, 500 ug/ml BSA, 20 U/ml SUPERase-In, 4 C; UNK is unkempt and MSI1 is Musashi-1; names of the RNAs are library labels; protein concentration not given here; high values mean tight binding
row,Binder,binding signal [enrichment R]
1,B1,1.13
2,B2,0.706
3,B3,1.73
4,B4,0.4
5,B5,1.86
6,B6,0.923
7,B7,1.41
8,B8,0.854
9,B9,0.841
10,B10,0.936
11,B11,1.1
12,B12,2.27
13,B13,0.669
14,B14,0.17
